Here are results for 50 sequences from the supplement of paper PMC12645437, “Orthogonal IMiD-Degron Pairs Induce Selective Protein Degradation in Cells” (ACS Chemical Biology, 2025).

The list shows a part of the results.
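Further: jurkat cells carrying a lentiviral library of mutant zinc finger degrons fused to EGFP plus mCherry, mCherry+ cells FACS sorted, degron abundance counted by next-generation sequencing.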

In the assay the target is no compound (DMSO). The assay can be described thus: log2 fold change of degron read counts, EGFP-low vs EGFP+ sorted cells; higher = lower degron-EGFP level without compound (poor expression or instability). The note with it: compound: DMSO control; 18 h.
On to FKCPICGAQFTQKGNLLRHIKL, for which the “log2 fold change of degron read counts” value was 0.0242. With FGCPICGHLFTQKGNLLRHIKL the figure was 0.112; with FCCPQCGALFTQKGNLLRHIKL, -0.275; with FICEICGAVFTQKGNLLRHIKL, -1.19. For FMCPQCGAKFTQKGNLLRHIKL the value was -0.667; for FGCEICGAYFTQKGNLLRHIKL, -0.188; for FSCNQCGRWFTQKGNLLRHIKL, 0.37. For FNCEICGARFTQKGNLLRHIKL the value was -0.979; for FKCDQCGACFTQKGNLLRHIKL, -1.63; for LWCPICGFLCTQKGNLLRHIKL, 3.61. In the case of FICPQCGAKFTQKGNLLRHIKL, the “log2 fold change of degron read counts” value is -0.782. For FSCEICGAMFTQKGNLLRHIKL the value was -1.24; for FWCEICGHLFTQKGNLLRHIKL, 1.17; for LKCPICGFNCTQKGNLLRHIKL, 0.751. For FNCPVCGAPFTQKGNLLRHIKL the value was 0.0878; for FVCPQCGAGFTQKGNLLRHIKL, -1.33; for FACSVCGHVFTQKGNLLRHIKL, -0.481.

FGCEQCGAFFTQKGNLLRHIKL: the “log2 fold change of degron read counts” value was -0.127. Take FYCNICGAKFTQKGNLLRHIKL: the “log2 fold change of degron read counts” value was -1.47. In the case of FHCNQCGHTFTQKGNLLRHIKL, the “log2 fold change of degron read counts” value came to 0.143. As for FMCEQCGAPFTQKGNLLRHIKL, the “log2 fold change of degron read counts” value is -0.741. Consider FWCPICGRKFTQKGNLLRHIKL, for which the “log2 fold change of degron read counts” value is -1.99. With FMCEVCGALFTQKGNLLRHIKL the figure was -0.0498; with FQCNVCGAIFTQKGNLLRHIKL, -0.0152. As for FSCDQCGAQFTQKGNLLRHIKL, the “log2 fold change of degron read counts” value was -1.42. With FGCDICGADFTQKGNLLRHIKL the figure was -1.4; with LKCPICGFCCTQKGNLLRHIKL, 0.439; with FDCEVCGAQFTQKGNLLRHIKL, -1.95.

With FQCEQCGAHFTQKGNLLRHIKL, the “log2 fold change of degron read counts” value is -2.56. For FACPVCGAYFTQKGNLLRHIKL the value was -0.303; for FECEQCGAPFTQKGNLLRHIKL, -1.95. In the case of LCCEICGFYCTQKGNLLRHIKL, the “log2 fold change of degron read counts” value was 1.03. With FACPICGRTFTQKGNLLRHIKL the figure was -0.362; with FKCPQCGAEFTQKGNLLRHIKL, -1.66. In the case of FGCEICGAEFTQKGNLLRHIKL, the “log2 fold change of degron read counts” value is -2.45. With FVCDQCGAMFTQKGNLLRHIKL the figure was -1.55; with FTCEQCGAWFTQKGNLLRHIKL, -0.82. With LSCNQCGFCCTQKGNLLRHIKL the figure was 0.847; with FMCPICGHLFTQKGNLLRHIKL, -0.0434; with FMCNQCGRKFTQKGNLLRHIKL, -1.11. For LFCEICGFHCTQKGNLLRHIKL the value was 0.619. FHCNICGAYFTQKGNLLRHIKL: the “log2 fold change of degron read counts” value was 0.351. With FTCDQCGAVFTQKGNLLRHIKL the figure was -1.04. With FHCEICGHRFTQKGNLLRHIKL the figure was -0.745; with FCCDICGASFTQKGNLLRHIKL, -1.77.

Take FVCPICGAIFTQKGNLLRHIKL: the “log2 fold change of degron read counts” value worked out at 0.713.

Consider FNCNICGAYFTQKGNLLRHIKL, for which the “log2 fold change of degron read counts” value turned out to be 0.856. With FVCEICGANFTQKGNLLRHIKL the figure was -1.92. For the sequence FCCDVCGAHFTQKGNLLRHIKL, the “log2 fold change of degron read counts” value is -1.94. For FDCPVCGAPFTQKGNLLRHIKL the value was -0.588.
